Only a part is listed here, and it is no random draw. The list includes weakly bound sequences.

In the experiment the target is T1, GST-Co-NF-kB (UniProt F1ARL5).
T1 sequence: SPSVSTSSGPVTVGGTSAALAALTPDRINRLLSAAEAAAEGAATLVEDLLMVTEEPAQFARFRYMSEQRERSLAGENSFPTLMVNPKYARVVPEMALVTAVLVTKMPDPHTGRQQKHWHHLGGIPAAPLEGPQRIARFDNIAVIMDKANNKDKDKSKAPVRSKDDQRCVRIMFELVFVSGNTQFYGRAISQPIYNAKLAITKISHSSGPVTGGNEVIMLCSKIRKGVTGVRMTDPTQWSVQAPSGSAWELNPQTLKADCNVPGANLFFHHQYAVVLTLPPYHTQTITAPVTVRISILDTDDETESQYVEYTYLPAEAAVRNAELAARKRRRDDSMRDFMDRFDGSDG
Description: protein-binding microarray (PBM). The note with it: PBM: ~300 nM protein, 6 mM HEPES pH 7.8, 80 mM KCl, 0.5 mM EDTA, 0.5 mM EGTA, 6% glycerol, 35 ng/ul poly-dIdC, 1% milk, 1 h, room temperature; Ap Aiptasia and Nv Nematostella (sea anemones) / Co Capsaspora / Aq Amphimedon (sponge) / Dm Drosophila / Hu human; RHD is the Rel homology domain; high values mean tight binding; most listed sequences are background and not binding sites; double strand, one strand shown.
In the case of “CCGATTAACATCAGGGATATTTATGATGTTAATCGGGTCTTGATTCGCTTGACGCTGCTG”, the binding signal was 1.68 z-score. Next, “CCGATTAACATCACTTATCCCCCTGATGTTAATCGGGTCTTGATTCGCTTGACGCTGCTG”: 6.68 z-score. The result for “CCGATTAACATCAGAATGCCCCCTGATGTTAATCGGGTCTTGATTCGCTTGACGCTGCTG” reads 2.56 z-score; that for “CCGATTAACATCACAGAATCCCCTGATGTTAATCGGGTCTTGATTCGCTTGACGCTGCTG”, 3.42 z-score.

As to “CCGATTAACATCAGGGGGGAACATGATGTTAATCGGGTCTTGATTCGCTTGACGCTGCTG”, the binding signal is 9.73 z-score. The result for “CCGATTAACATCAGGGGGAAAACTGATGTTAATCGGGTCTTGATTCGCTTGACGCTGCTG” reads 11.7 z-score. “CCGATTAACATCAGAAAGCCCCCTGATGTTAATCGGGTCTTGATTCGCTTGACGCTGCTG” came in with a binding signal of 2.16 z-score. “CCGATTAACATCAGGTAATTACCTGATGTTAATCGGGTCTTGATTCGCTTGACGCTGCTG” showed a binding signal of -0.14 z-score. The result for “CCGATTAACATCAAAATGCCCCCTGATGTTAATCGGGTCTTGATTCGCTTGACGCTGCTG” reads 4.18 z-score. “CCGATTAACATCAAGGGACTTCCTGATGTTAATCGGGTCTTGATTCGCTTGACGCTGCTG” had a binding signal of 1.07 z-score.

Regarding “CCGATTAACATCAACGCCCCCCCTGATGTTAATCGGGTCTTGATTCGCTTGACGCTGCTG”, the binding signal is 4.15 z-score.

“CCGATTAACATCAGGGGGAAAGATGATGTTAATCGGGTCTTGATTCGCTTGACGCTGCTG” had a binding signal of 8.03 z-score. The result for “CCGATTAACATCAGGGAAATTCATGATGTTAATCGGGTCTTGATTCGCTTGACGCTGCTG” reads 4.15 z-score; that for “CCGATTAACATCAATCCCCCCCATGATGTTAATCGGGTCTTGATTCGCTTGACGCTGCTG”, 6.68 z-score.

Values taken from PMC5700166.
